# Measurements taken from PubChem BioAssay AID588855 (National Center for Advancing Translational Sciences (NCATS), 2011).
# Screen size: about 410,000 compounds; about 5,000 (1.2%) were called active. The inconclusive results got no clear call from the source; some entries with a clear call stand among them for comparison. The call rests on the fitted dose curve; in most records, active means well fitted inhibition curve with a large enough effect; inconclusive means small, poorly fitted or top-dose-only effect; inactive means no such curve, though single readings can be large or run the other way. A potency beside an inconclusive call is a rough fit, not a confirmed value.
# Test: qHTS for Inhibitors of TGF-b; further: nearly all actives have a fitted effect of over 65% in size
# Details: HepG2 CAGA-GFP TGF-b/SMAD3 reporter, GFP fluorescence, 18 h, TGF-beta stimulated, 500 pg/mL final; series mostly up to 46.1 µM
# Procedure, shortened: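 Inhibition was scored as loss of TGF-beta-induced (500 pg/mL final, 18 hours, 37 degrees C) GFP in HEPG2 cells carrying a CAGA-GFP reporter, in DMEM with 1% FBS. Well GFP was summed per cell; Activity was normalised to unstimulated and stimulated DMSO wells, then concentration-response fitting.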
# Potency means the concentration at half of the fitted maximal effect; tags describe the fitted curve by direction and shape.
row,Structure (SMILES),Potency
1,COC(=O)c1c(NC(=O)CN(c2ccccc2)S(C)(=O)=O)sc2c1CCCC2,"inconclusive: 35.5 µM [inhibitor, single point]"
2,Cc1cccc2c1-c1sc(C(=O)Nc3cccc([N+](=O)[O-])c3C)cc1CO2,"inconclusive: 25.1 µM [inhibitor, single point]"
3,O=C(Nc1ccncc1)Nc1ccccn1,"inconclusive: 35.5 µM [inhibitor, single point]"
4,CC(=O)Nc1cccc(-c2ccnc3c2CC(C)(C(=O)Nc2ccc(F)c(Cl)c2)O3)c1 (stereo not given),"inconclusive: 28.2 µM [inhibitor, single point]"
5,COc1ccc(-c2ccc3ccccc3n2)cc1OC,inactive
6,CCCCc1nn(-c2cc(Cl)ccc2OC)c2c1C(=O)CC(C)(C)C2,"inconclusive: 35.5 µM [inhibitor, single point]"
7,O=C(c1cccc(N2CCCC2=O)c1)N1CCN(c2cccc(Cl)c2)CC1,"inconclusive: 17.8 µM [inhibitor, single point]"
8,N#CCCn1cc(C=O)c(-c2cccs2)n1,"inconclusive: 0.355 µM [inhibitor, full curve, poor fit]"
9,O=C(NCc1ccc(Cl)cc1)c1ccc(-c2ccccc2C(F)(F)F)o1,active: 15.8 µM
10,CC1(C(=O)NCc2cccc(C(F)(F)F)c2)CCN1Cc1ccc2ccccc2c1 (stereo not given),"inconclusive: 35.5 µM [inhibitor, single point]"
11,Fc1ccc(-n2c(Cc3ccccc3)nnc2SCc2nc(-c3ccc(Cl)cc3)no2)cc1,"inconclusive: 22.4 µM [inhibitor, single point]"
12,CC(C)(C)C(=O)N1CCN(S(=O)(=O)c2ccc3c(c2)OCCCO3)CC1,inactive
13,Cc1ccc(NC(=O)c2ccccc2NS(=O)(=O)c2ccc(Cl)s2)cc1S(=O)(=O)N1CCOCC1,"inconclusive: 3.55 µM [inhibitor, full curve]"
14,O=c1c(C(c2ccc(Cl)cc2)c2c(O)nc3n(c2=O)CCS3)c(O)nc2n1CCS2,"inconclusive: 35.5 µM [inhibitor, single point]"
15,CCCc1cc(=O)[nH]c2nnc(SCC(=O)Nc3ccc(OC)cc3)n12,"inconclusive: 6.31 µM [inhibitor, full curve, poor fit]"
16,CC(OC(=O)c1c2c(nc3ccccc13)/C(=C\c1ccc3c(c1)OCO3)CCC2)C(=O)Nc1ccc(S(N)(=O)=O)cc1 (stereo not given),"inconclusive: 14.1 µM [inhibitor, single point]"
17,O=C(COCc1cc(-c2ccc(F)cc2)on1)Nc1cccc(Cl)c1Cl,inactive
18,O=C(Nc1ccccc1C(=O)OCc1cc(=O)n2ccsc2n1)c1ccc(Cl)cc1,inactive
19,c1ccc(Nc2c3c(nc4ccccc24)CCC3)cc1,"inconclusive: 14.1 µM [inhibitor, partial curve, poor fit]"
20,Cc1cccc(N=CC=C2OC(C)(C)C(C)(C)O2)c1,"inconclusive: 35.5 µM [inhibitor, single point]"
21,CCc1ccc(C2=NNC(=Nc3cccc(S(=O)(=O)N(C)C)c3)SC2)cc1,active: 12.6 µM
22,CC(NC(=O)c1ccc2c(c1)N(Cc1ccc(Cl)cc1)C(=O)c1ccccc1S2=O)c1ccccc1 (stereo not given),"inconclusive: 3.55 µM [inhibitor, single point]"

row,Structure (SMILES),Potency
1,CN(CCO)C1=NS(=O)(=O)c2cc([N+](=O)[O-])ccc21,inactive
2,COc1ccc(Cl)cc1NC(=O)Cn1cnc2c1c(=O)n(C)c(=O)n2C,"inconclusive: 5.01 µM [inhibitor, partial curve, poor fit]"
3,Cc1ccc(NC(=S)NNC(=S)Nc2ccc(C)cc2)cc1,"inconclusive: 25.1 µM [inhibitor, single point]"
4,COc1ccc(Cl)cc1N(CC(=O)NC(C(C)C)C(C)C)S(C)(=O)=O,"inconclusive: 35.5 µM [inhibitor, partial curve, poor fit]"
5,COc1cccc(NC(=O)C2CCN(c3nc4ccccc4nc3C(F)(F)F)CC2)c1,"inconclusive: 14.1 µM [inhibitor, single point]"
6,CN(C)c1ccc(C(CNC(=O)c2ccccc2)c2c[nH]c3ccccc23)cc1 (stereo not given),"inconclusive: 35.5 µM [inhibitor, single point]"
7,CCn1c(=O)cc(OCC(=O)N2CCN(c3ccccc3OC)CC2)c2ccccc21,"inconclusive: 35.5 µM [inhibitor, single point]"
8,O=C(CCl)Nc1cccc(S(=O)(=O)NC2=NCCCCC2)c1,"inconclusive: 35.5 µM [inhibitor, single point]"
9,COC(C(=O)C(O)C(C)O)C1Cc2cc3cc(OC4CC(OC5CC(O)C(O)C(C)O5)C(O)C(C)O4)c(C)c(O)c3c(O)c2C(=O)C1OC1CC(OC2CC(OC3CC(C)(O)C(O)C(C)O3)C(O)C(C)O2)C(O)C(C)O1 (stereo not given),active: 0.631 µM
10,C[C@@]12CCC=C[C@H]1[C@H](c1ccc(C(F)(F)F)cc1)N(Cc1ccccc1)C2=O,"inconclusive: 10 µM [inhibitor, partial curve, poor fit]"
11,CC(NC(=O)c1ccc(F)cc1)c1ccc2c(c1)CCCC2 (stereo not given),"inconclusive: 0.631 µM [inhibitor, partial curve, poor fit]"
12,Cc1cccc(NC(=O)c2ccc(COc3cccc4ccccc34)o2)n1,"inconclusive: 35.5 µM [inhibitor, single point]"
13,Cc1cc(NC(=O)/C=C/c2ccco2)ccc1NC(=O)c1ccccc1,inactive
14,Cc1cc(C)n2c(Nc3ccccc3)c(-c3ccccc3)nc2n1,"inconclusive: 11.2 µM [inhibitor, single point]"
15,CCOC(=O)c1cc(=O)n2c(nc3ccccc32)[nH]1,"inconclusive: 5.62 µM [inhibitor, single point]"
16,Cc1cccc(OCc2nnc(SCC(=O)N(c3ccccc3)C3CCS(=O)(=O)C3)o2)c1 (stereo not given),inactive
17,CCCCN(C=O)c1c(CC)nc2c(OCc3ccc(Cl)cc3)cccn12,"inconclusive: 35.5 µM [inhibitor, single point]"
18,O=C(CSc1nnc(Cc2ccccc2)o1)N1CCc2ccccc21,"inconclusive: 3.98 µM [inhibitor, full curve, poor fit]"
19,COc1ccc(-n2c(-c3ccco3)nc3c(cnn3-c3ccccc3C)c2=O)cc1,"inconclusive: 4.47 µM [inhibitor, partial curve]"
20,O=S(=O)(Nc1nccs1)c1ccc(Nc2nnc(-c3ccccc3)c3ccccc23)cc1,"inconclusive: 12.6 µM [inhibitor, single point]"
21,Cc1cc(N2CCN(c3cccc(C)c3C)CC2)n2nc(C)c(-c3ccc(Cl)cc3)c2n1,inactive
22,CCOC(=O)C1CCC/C1=N\NC(=O)CN(c1cc(OC)ccc1OC)S(=O)(=O)c1ccccc1 (stereo not given),"inconclusive: 35.5 µM [inhibitor, single point]"

row,Structure (SMILES),Potency
1,CC(C)(C)c1ccc(-n2nc(C(N)=O)c(O)cc2=O)cc1,inactive
2,CN(Cc1ccccc1)C(=O)c1ccc(NC(=O)c2ccccc2)cc1,"inconclusive: 35.5 µM [inhibitor, single point]"
3,CCOC(=O)c1cc(-c2ccc(C)cc2)nc2nc(SC)[nH]c(=O)c12,inactive
4,COc1ccc(C(=O)NCCn2cc(SCc3cc(C)ccc3C)c3ccccc32)cc1,"inconclusive: 14.1 µM [inhibitor, partial curve, poor fit]"
5,CC(C)(C)OC(=O)NCCCC[C@H](NC(=O)c1nc[nH]c1C(=O)NCc1ccccc1)C(=O)OC(C)(C)C,"inconclusive: 10 µM [inhibitor, partial curve, poor fit]"
6,O=C(CSc1nnc(CCc2ccccc2)n1-c1ccc(Cl)cc1)NCc1ccccc1,active: 11.2 µM
7,N#CCCN(C(=O)COC(=O)c1cc(=O)[nH]c2ccccc12)c1ccccc1,inactive
8,COc1cc2c(cc1OC)C(C)N(C(=O)Nc1ccccc1)CC2 (stereo not given),inactive
9,O=C(O)CSc1nc2ccc(C(=O)c3ccccc3)cc2[nH]1,inactive
10,COC(=O)c1cccc(NC2CC(=O)N(c3ccc(OC)c(OC)c3)C2=O)c1 (stereo not given),inactive
11,COCCn1c(=NC(=O)c2ccccc2[N+](=O)[O-])sc2cc(S(C)(=O)=O)ccc21,"inconclusive: 0.112 µM [inhibitor, full curve, poor fit]"
12,Cc1ccc(CNC(=O)Cn2c(=O)n(Cc3ccccc3)c(=O)c3sc4ccccc4c32)cc1,inactive
13,Cn1nnnc1Sc1ncnc2scc(-c3ccc(Cl)cc3)c12,"inconclusive: 17.8 µM [inhibitor, partial curve, poor fit]"
14,Cc1c(C)c2ccc(OCC(=O)NCCCn3ccnc3)c(C)c2oc1=O,inactive
15,CCn1c2ccccc2c2cc(N)ccc21,inactive
16,COc1ccc(-n2c(C)cc(C(=O)CSc3nnc(-c4cccs4)o3)c2C)cc1,"inconclusive: 3.98 µM [inhibitor, full curve, poor fit]"
17,C[C@H](CO)N1C[C@H](C)[C@@H](CN(C)C(=O)Nc2ccc3c(c2)OCO3)Oc2ccc(NC(=O)C3CCCCC3)cc2C1=O,"inconclusive: 35.5 µM [inhibitor, single point]"
18,C[C@H](NC(=O)c1nc[nH]c1C(=O)N1CCN(c2ccccc2)CC1)c1ccccc1,"inconclusive: 2 µM [inhibitor, partial curve]"
19,c1ccc(-c2ccc(-c3csc4ncnc(Sc5nnnn5-c5ccccc5)c34)cc2)cc1,"inconclusive: 5.62 µM [inhibitor, single point]"
20,CSc1ccccc1OCc1cc(C(=O)N(C)Cc2ccc(C)o2)no1,inactive
21,COc1cc(C2NCC(c3ccc(Cl)cc3Cl)c3c2[nH]c2ccccc32)cc(OC)c1OC (stereo not given),inactive
